In PubChem BioAssay AID686970 (National Center for Advancing Translational Sciences (NCATS), 2013):
The campaign covered roughly 360,000 compounds. About 6,000 (1.7%) were called active. Inconclusive results, whose numbers are uncertain, are shown with a selection of clear calls. Calls follow the shape of the dose curve; as a rule, active = well fitted cell-killing curve with a large enough effect; inconclusive = small, poorly fitted or top-dose-only effect, or effect the other way; inactive = flat fitted curve, though single readings scatter. Potencies of inconclusive entries are left out as doubtful fits.

Test: qHTS for induction of synthetic lethality in tumor cells producing 2HG: qHTS for the HT-1080-NT fibrosarcoma cell line;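 also: NT is the 2HG producing partner of a matched IDH1 knockdown line; nearly all actives have a fitted effect of over 55% in size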;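 as to activity, negative = less viability: 0% = DMSO-treated cells and -100% = media-only wells without cells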
Details: HT-1080-NT fibrosarcoma viability, CellTiter-Glo ATP luminescence, 48 h; activity, negative = less viability: at 46.1 µM (top of the series) unless noted
Summary of the method: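 HT-1080-NT; 750 cells/well; 5% FBS RPMI; 48 h compound, 37 degrees C; CellTiter-Glo luminescence; curve fitting and curve-class assignment.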
Potency is read from the fitted curve at half-maximal effect; tags tell the direction and shape of the fitted curve.

SMILES	activity, negative = less viability	Potency
CCc1cc2c(=O)c(-c3ccc(F)cc3)c(C)oc2cc1OCC(=O)O	inactive: 15.6%	
Cc1ccc(-c2nnc(N3CCN(C(=O)COc4ccccc4)CC3)c3ccccc23)cc1		inconclusive [cytotoxic, single point]
CC1(C(=O)Nc2ccc3c(c2)OCCO3)CCN1C(=O)c1ccco1 (stereo not drawn)		inconclusive [rising, single point]
COc1ccccc1-c1cc(SC)c(C#N)c(=O)o1	inactive: 1.5%	
CC(=O)Nc1ccc(NC(=O)c2nc(S(=O)(=O)Cc3cccc(C)c3)ncc2Cl)cc1		active: 9.2 µM
COc1ccc(S(=O)(=O)N2CCCC2CNC(=O)C(=O)NCc2cccs2)cc1 (stereo not drawn)	inactive: 0.0288%	
Oc1cc(OCc2ccccc2)ccc1-c1[nH]ncc1-c1ccccc1		active: 16.4 µM
CCOc1ccc(C(=O)NC(=S)N(Cc2ccccc2)Cc2ccccc2)cc1		inconclusive [cytotoxic, partial curve, poor fit]
O=C(NC(=S)Nc1cccnc1)c1cc2ccccc2o1		inconclusive [rising, partial curve]
CC1=C(C(=O)N2CCOCC2)CC(CC(=O)NC2CC2)C(=O)N1Cc1ccc(C(C)(C)C)cc1 (stereo not drawn)	inactive: -5.56%	
O=C(Nc1nc2ccccc2[nH]1)c1ccccc1		inconclusive [cytotoxic, partial curve]
COc1ccc(COc2ccsc2C(=O)Nc2ccc(Cl)cc2)cc1		inconclusive [cytotoxic, partial curve]
O=C(O)CSc1nnc(CNc2ccc(F)cc2)n1-c1ccccc1		inconclusive [rising, single point]
O=C(CN(Cc1ccccc1)S(=O)(=O)c1ccccc1)N/N=C/c1ccc2c(c1)OCO2		inconclusive [cytotoxic, single point]
COc1ccc(N2CCN(C(=S)Nc3ccc(F)cc3)CC2)cc1	inactive: -4.76%	
COc1ccc(C2C=C(c3ccccc3)Nc3nc(CCCO)nn32)cc1 (stereo not drawn)	inactive: 0.192%	
COC(=O)Cc1ccc(Oc2ncc(C(F)(F)F)cc2Cl)cc1		inconclusive [rising, full curve, poor fit]
NC1=NC2(CCC(c3ccccc3)CC2)n2c(nc3ccccc32)N1 (stereo not drawn)		active: 20.6 µM
COc1ccc(/C(C)=N/NC(=O)c2nnn(-c3nonc3N)c2-c2ccccc2)cc1		inconclusive [cytotoxic, partial curve]
O=C(c1ccc(-c2ccccc2Cl)o1)N1CCN(c2ccccc2O)CC1		inconclusive [cytotoxic, single point]
CC(C)[C@H](NC(=O)OCc1ccccc1)C(=O)NCc1ccccc1	inactive: 2.65%	
COc1cc2nc(C3CCC3)n(NC(=O)COc3ccccc3)c(=O)c2cc1OC		active: 7.08 µM
COc1cc(F)ccc1-c1csc(C(O)(c2ccccc2)C(F)(F)F)n1 (stereo not drawn)		inconclusive [cytotoxic, single point]
Cc1ccccc1CSc1nc2n(n1)C(c1cccs1)C1=C(CCCC1=O)N2 (stereo not drawn)		inconclusive [cytotoxic, single point]
CCC(=O)Nc1c(-c2ccc3ccccc3c2)nc2ccccn12	inactive: -15.2%	

SMILES	activity, negative = less viability	Potency
CCN(C(=O)c1coc(=O)c(Br)c1)c1ccc2c(c1)OCO2		inconclusive [cytotoxic, single point]
O=C(CN1CCC(C(=O)c2ccc(Cl)cc2)CC1)Nc1ccc2c(c1)OCCO2		inconclusive [cytotoxic, single point]
O=[N+]([O-])c1c(NCCO)cc(Sc2nc3ccccc3s2)c2nonc12		active: 5.62 µM
COCCn1c(=O)c2c(nc3n2CCCN3CCc2ccccc2)n(C)c1=O	inactive: 0.324%	
CCN(C(=O)/C=C/c1cc(OC)c(OC)c(OC)c1)C1CCCCC1	inactive: -1.07%	
CCc1ccc(-c2cc(C)no2)cc1S(=O)(=O)N1CC(=O)Nc2ccccc21		inconclusive [cytotoxic, full curve]
Cc1cccc(OCCCCc2c(C)n[nH]c2C)c1		inconclusive [cytotoxic, single point]
CS(=O)(=O)c1ccc2nc(NC(=O)c3ccccc3)sc2c1		inconclusive [cytotoxic, single point]
O=C(Nc1ccc(F)cc1)c1ccccc1Oc1ccc(C(F)(F)F)cc1[N+](=O)[O-]		inconclusive [cytotoxic, single point]
c1cc2c(cc1C1CCCCC1)c1c3n2CCCNC3CCC1 (stereo not drawn)		active: 16.4 µM
O=[N+]([O-])c1cc(CN(CCO)CCO)ccc1O	inactive: 4.26%	
CN(C)CCCN1C(=O)C(O)=C(C(=O)c2cc3ccccc3o2)C1c1ccccc1 (stereo not drawn)	inactive: 8.88%	
COc1cccc(C(=O)NCC2CCN(c3ccc(S(=O)(=O)N4CCOCC4)cc3)CC2)c1	inactive: -5.23%	
CCOC(=O)C1(CCc2ccccc2)CCN(C(=O)c2cccc(C)n2)CC1	inactive: -8.37%	
CCOc1cc(/C=N/Nc2cc(C)nc(-n3nc(C)cc3C)n2)ccc1O		active: 5.8 µM
Cc1cc(Br)cc(C)c1OCCCCN(C)C		inconclusive [cytotoxic, single point]
COc1ccc(C2c3c(ncn(CCN4CCOCC4)c3=N)Oc3ccc4ccccc4c32)cc1OC (stereo not drawn)		inconclusive [cytotoxic, single point]
O=C(NCc1ccccn1)C1CC(c2ccc(Cl)c(Cl)c2)=NO1 (stereo not drawn)	inactive: -20.4%	
O=C(CSc1nccc(=O)[nH]1)Nc1cccc2ccccc12	inactive: 0.874%	
O=C(Nc1ccccc1Br)c1ccccc1-c1ccccc1		inconclusive [cytotoxic, single point]
O=C(NCCC1=CCCCC1)c1ccc2c(c1)N(Cc1ccccc1)C(=O)CS2		inconclusive [cytotoxic, single point]
FC(F)(F)c1cc(CO[C@@H]2CCCN[C@@H]2c2ccccc2)cc(C(F)(F)F)c1		inconclusive [cytotoxic, single point]
Cc1cc(C)nc(Sc2ncnc(N)c2[N+](=O)[O-])n1		inconclusive [cytotoxic, single point]
COc1cc(OC)c(C(=O)C=Cc2ccc(OC)c(OC)c2)c(OC)c1		inconclusive [cytotoxic, single point]
O=C(CCCCn1c(=O)c2ccccc2n(Cc2ccc(F)cc2)c1=O)NCc1ccco1		active: 18.4 µM

SMILES	activity, negative = less viability	Potency
COc1ccc(CNCC(=O)Nc2ccccc2-n2cccc2)cc1		inconclusive [cytotoxic, single point]
N/C(=N\c1nc2ccccc2o1)NC(=O)/C=C/c1ccccc1		inconclusive [cytotoxic, single point]
O=C(CSc1nc(-c2ccco2)cc(C(F)(F)F)n1)NCc1cccs1	inconclusive: -33.5% [cytotoxic]	
O=c1c2ccccc2nnn1CSc1nc2ccccc2c(=O)n1CCCO		inconclusive [cytotoxic, single point]
CC(C)(C)c1cc(CP(=O)(c2ccccc2)c2ccccc2)cc(C(C)(C)C)c1O		inconclusive [cytotoxic, single point]
CNC(=O)c1c(NC(=O)c2cc(-c3cc(C)c(C)cc3O)n[nH]2)sc2c1CCCC2	inactive: 4.04%	
Cc1[nH]c2ccc(F)cc2c1CCN(Cc1cccnc1)C(=S)Nc1cccc(F)c1		inconclusive [cytotoxic, single point]
CC(C)C(c1nnnn1Cc1ccco1)N1CCN(c2nc3ccccc3s2)CC1 (stereo not drawn)		inconclusive [cytotoxic, single point]
Cc1c(Cc2ccccc2)sc(NC(=O)/C=C/c2cccc3ccccc23)c1C(N)=O		active: 13 µM
C#CC(=O)N(c1cccc(OC)c1)C(C(=O)NC1CCCC1)c1cccs1 (stereo not drawn)		active: 0.251 µM
O=C1OCC2=C1C(c1ccc(Cl)cc1)c1cc3c(cc1O2)OCO3 (stereo not drawn)		inconclusive [cytotoxic, single point]
CCN(CC(=O)Nc1ccc2c(c1)OCCO2)C(=O)c1cc(=O)[nH]c2ccccc12	inactive: -11.3%	
CCC(C)[C@H](NC(=O)C1CCN(C(=O)[C@H](Cc2ccccc2)NC(=O)OC(C)(C)C)CC1)C(=O)O (stereo partly drawn)	inconclusive: 12.2%	
CC(C)CC[n+]1ccccc1/C=C/c1ccc(N(C)C)cc1		inconclusive [cytotoxic, single point]
CC(C)(C)OC(=O)N1CCC(NC(=O)c2nc[nH]c2C(=O)N2CCc3ccccc3C2)CC1	inactive: 17.5%	
Cc1ccc(Cc2c(-c3ccc(C)cc3)nc3c(C)cc(Br)cn23)cc1		inconclusive [cytotoxic, single point]
CC(C)Oc1ccc(F)cc1-c1cc(C(=O)Nc2ccc(C(C)(C)C)cc2)[nH]n1		active: 23.1 µM
Cc1cc(C)c(OCCCCN(C)C)c(Br)c1	inconclusive: -19.6% [cytotoxic]	
OC(c1ccc(Cl)c(Cl)c1)c1ncc(-c2ccc(C(F)(F)F)cc2)[nH]1 (stereo not drawn)		inconclusive [cytotoxic, single point]
CN1CCN(C2=Cc3cc(Cl)ccc3Sc3cc(F)ccc32)CC1		inconclusive [cytotoxic, single point]
CCc1cccc2c(C(=O)CCl)c[nH]c12		inconclusive [cytotoxic, single point]
Nc1nc(Cl)nc2c1ncn2C1CC(O)C(CO)O1 (stereo not drawn)		inconclusive [cytotoxic, full curve]
O=C(C1CCCCC1)N1C[C@@H](n2cc(-c3ccc(F)cc3)nn2)[C@H](O)C[C@@H]1c1ccc(Cl)cc1		inconclusive [cytotoxic, single point]
